{"source": "the supplement of paper PMC11417369", "note": "± gives the standard deviation of the averaged measurements. Some of the results follow."}
{"test_system": "PfAP2-I AP2 domain 3 (GST-tagged)", "assay": "gcPBM binding intensity (ln(normalized median fluorescence intensity)); higher = stronger DNA binding", "procedure,_shortened": "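Binding intensity values are the highest Masliner-normalised natural-log median intensity among replicate spots of either probe orientation. The binding step lasted 1 h in 1× PBS with 1% milk, 0.2 mg/ml BSA, 0.5% salmon testes DNA and 0.03% Triton X-100, using GST-tagged P. falciparum DNA-binding domains expressed in E. coli on an Agilent 4 × 180k array of primer-extended double-stranded 36-bp intergenic genomic probes plus negative controls. Alexa488 anti-GST antibody and a 488 nm scan detected bound protein.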"}
{"sequence": "AATAATAATTTGAATACACACAATAATATATATATA [CACACA_site2059]", "gcPBM binding intensity (ln)": "8.95 ± 0.092"}
{"sequence": "ATACAAAAAATCACATGTACATATTCTTAAATGGTA [XGTACX_site8502]", "gcPBM binding intensity (ln)": "8.02 ± 0.4"}
{"sequence": "TACCTTTCTTATTATTGAAAAGGAATATATAAATAG [CACACA_negctrl_site272]", "gcPBM binding intensity (ln)": "7.64 ± 0.49"}
{"sequence": "TTATATCATTTTCCTGCACACATAAATTTATATAAT [CACACA_site8257]", "gcPBM binding intensity (ln)": "9.24 ± 0.49"}
{"sequence": "ACAAAATATACAAAATGTACAAAATATACAAAATGT [XGTACX_site6467]", "gcPBM binding intensity (ln)": "7.58 ± 0.49"}
{"sequence": "TTATTCTAAAAGTGTTTGCACTTTTATAATCATATA [GTGCAC_site9929]", "gcPBM binding intensity (ln)": "9.44 ± 0.38"}
{"sequence": "TATACAGATAAATACACACACACATATATATATATA [CACACA_site4845]", "gcPBM binding intensity (ln)": "9.38 ± 0.4"}
{"sequence": "CATATGTATTTATTCACACATATATATATATATATA [CACACA_site4207]", "gcPBM binding intensity (ln)": "9.36 ± 0.57"}
{"sequence": "AATACATTTATGAGCTGTACACATTTATTTGAGCTA [XGTACX_site7695]", "gcPBM binding intensity (ln)": "7.95 ± 0.057"}
{"sequence": "ATATATATTAATATTTGTACATAAAATTATTTCAAT [XGTACX_site5364]", "gcPBM binding intensity (ln)": "7.97 ± 0.53"}
{"sequence": "AAAGTAACACACTAATATTTTAACAAATAATATATA [GTGCAC_negctrl_site132]", "gcPBM binding intensity (ln)": "7.7 ± 0.23"}
{"sequence": "AGTGTAATTTTCCACTGTACTTTTCTTGTATATAAT [XGTACX_site4201]", "gcPBM binding intensity (ln)": "8.26 ± 0.27"}
{"sequence": "TCTTAAAATCGGAAATGAAATAAAGTTTACAATATG [TGCATGCA_negctrl_site553]", "gcPBM binding intensity (ln)": "7.58 ± 0.69"}
{"sequence": "TGATTCTGTCATGGTGCACACCAGAACCATTATAAA [CACACA_site1965]", "gcPBM binding intensity (ln)": "10.3 ± 0.41"}
{"sequence": "TGTTTAATCACATGTTTGCACTTTCCTTTTGTAAAT [GTGCAC_site9893]", "gcPBM binding intensity (ln)": "9.45 ± 0.16"}
{"sequence": "ATATATAAATATATATGTACACACATATACATGTTG [XGTACX_site6653]", "gcPBM binding intensity (ln)": "7.76 ± 0.38"}
{"sequence": "AATTATTCTATATATTGTACATGTTTGTTTTTTTTT [XGTACX_site3130]", "gcPBM binding intensity (ln)": "7.75 ± 0.56"}
{"sequence": "TAATATATATTATTATGTACATATATTGATTCCTTG [XGTACX_site6830]", "gcPBM binding intensity (ln)": "8.11 ± 0.35"}
{"sequence": "TATTTATTAATATGTACACACATCAACCATATTAAC [CACACA_site7001]", "gcPBM binding intensity (ln)": "8.01 ± 0.35"}
{"sequence": "CCAAAATACATTAAACGTACATGTCCTAATAAGATA [XGTACX_site21]", "gcPBM binding intensity (ln)": "7.83 ± 0.25"}
{"sequence": "TTCTTATATATATACACACACAAAATATCTACAATG [CACACA_site736]", "gcPBM binding intensity (ln)": "7.99 ± 0.51"}
{"sequence": "TTGTTTTTATAAATATTATTACAATGAAAAAAAAAA [TGCATGCA_negctrl_site185]", "gcPBM binding intensity (ln)": "7.79 ± 0.52"}
{"sequence": "AATCTGATCTTTTAAAGTACACAAAAAAAAAAAAAA [XGTACX_site115]", "gcPBM binding intensity (ln)": "8.04 ± 0.4"}
{"sequence": "AGGTTATAAATAAATACACACATACAAAAATATGAC [CACACA_site4773]", "gcPBM binding intensity (ln)": "7.75 ± 0.63"}
{"sequence": "AAAAAAAAAAAAAAAAGTACGTATCAAAGCATCAAA [XGTACX_site880]", "gcPBM binding intensity (ln)": "8.75 ± 0.49"}
{"sequence": "CATATATATATATGTACACACATTAATAAAAAAAAA [CACACA_site3230]", "gcPBM binding intensity (ln)": "7.96 ± 0.3"}
{"sequence": "GTTTAACTGTTTTATACACACAATGTATACAATAAA [CACACA_site2959]", "gcPBM binding intensity (ln)": "7.83 ± 0.55"}
{"sequence": "AATGAACACCTAAAATGTACGTACAAATATATTTTA [XGTACX_site7067]", "gcPBM binding intensity (ln)": "7.99 ± 0.45"}
{"sequence": "TTTGAGTGCACATACACACAGACATACATTTAAATA [CACACA_site3403]", "gcPBM binding intensity (ln)": "10.6 ± 0.56"}
{"sequence": "ATGTTTAATTTTTTTTTGTCCCTATAGAAGTGTCAA [CACACA_negctrl_site1103]", "gcPBM binding intensity (ln)": "7.82 ± 0.6"}
{"sequence": "AATGAATAAATAAACACACACACATATATAAATATG [CACACA_site6160]", "gcPBM binding intensity (ln)": "7.93 ± 0.43"}
{"sequence": "AAAACAAACAGACACACACACATATATATATATATA [CACACA_site3655]", "gcPBM binding intensity (ln)": "9.41 ± 0.52"}
{"sequence": "TTTAAAATTTTTTTTTTTTTTTTTTTTTTTTTTTAT [TGCATGCA_negctrl_site213]", "gcPBM binding intensity (ln)": "7.26 ± 0.39"}
{"sequence": "ATATAAATATGTTCTGCACACAAATAAGTGTTTGAA [CACACA_site9291]", "gcPBM binding intensity (ln)": "8.57 ± 0.37"}
{"sequence": "ATAACCTAATAATACACACACATGAATATATAGAAT [CACACA_site963]", "gcPBM binding intensity (ln)": "8.04 ± 0.35"}
{"sequence": "ATAAATAATAAGGTTACAACAAACACACAAAGGAAT [XGTACX_negctrl_site611]", "gcPBM binding intensity (ln)": "8.46 ± 0.64"}
{"sequence": "GGTTATAACCCACATGCACACGTAAATAAATATTAT [CACACA_site5992]", "gcPBM binding intensity (ln)": "8.77 ± 0.3"}
{"sequence": "TGTCCAATTTATTGTGCACACCTCAAAAGTGGGTAA [CACACA_site3826]", "gcPBM binding intensity (ln)": "10.8 ± 0.28"}
{"sequence": "TAAAAAAAAAAGTATACACACTTCTTAATGTCAACA [CACACA_site4818]", "gcPBM binding intensity (ln)": "7.36 ± 0.46"}
{"sequence": "TTTTTTTATAAATTCACACAAAATATAATATTAAAA [CACACA_site4766]", "gcPBM binding intensity (ln)": "7.58 ± 0.46"}
{"sequence": "CTATATATTTTTCATTGTACACAAATTAAAGAAAAA [XGTACX_site8385]", "gcPBM binding intensity (ln)": "8.105 ± 0.064"}
{"sequence": "AATGTCATCATATTCATATATATTTATTTCTTTTTG [GTGCAC_negctrl_site500]", "gcPBM binding intensity (ln)": "7.68 ± 0.57"}
{"sequence": "ATGATGGAATATTCTACACACAATTAATAAACAAAC [CACACA_site1045]", "gcPBM binding intensity (ln)": "8.04 ± 0.78"}
{"sequence": "ATATAATCCTTTCAAACACACAAAATATAATTAATA [CACACA_site1829]", "gcPBM binding intensity (ln)": "7.76 ± 0.54"}
{"sequence": "GATGATACACAGGTGTTGCACTTAAATGCAGTTCTT [GTGCAC_site9627]", "gcPBM binding intensity (ln)": "9.4 ± 0.28"}
